In the supplement of paper PMC4967469:

What was measured:
Experiment in all cases: Viability of human cancer cell lines after 72 h of drug (GDSC screen)
Trametinib = compound: CC(=O)Nc1cccc(-n2c(=O)n(C3CC3)c(=O)c3c(Nc4ccc(I)cc4F)n(C)c(=O)c(C)c32)c1 [Trametinib]; conditions: top dose 1 µM
Method: (§1)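 Human cancer cell lines in 384-well plates, medium with 10% serum, drug for 72 h over a 256-fold dose range (nine 2-fold or five 4-fold steps up to the top dose). Adherent lines were fixed and stained with the nucleic acid dye Syto60, suspension lines read with resazurin; signal relative to control wells, capped at 0 and 100%. One two-parameter sigmoid per drug and line, fitted in a mixed model over all curves with the slope shared within a line.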

HG-6-64-1 = compound: CCN1CCN(Cc2ccc(NC(=O)c3ccc(C)c(/C=C/c4cnc5[nH]ccc5c4OC)c3)cc2C(F)(F)F)CC1 [HG-6-64-1]; conditions: top dose 5.12 µM; top dose inferred
Method: as §1

I-BET-762 = compound: CCNC(=O)C[C@@H]1N=C(c2ccc(Cl)cc2)c2cc(OC)ccc2-n2c(C)nnc21 [I-BET-762]; conditions: top dose 20 µM; top dose inferred
Method: as §1

PF-4708671 = compound: CCc1cncnc1N1CCN(Cc2nc3ccc(C(F)(F)F)cc3[nH]2)CC1 [PF-4708671]; conditions: top dose 10 µM; top dose inferred
Method: as §1

AV-951 = compound: COc1cc2nccc(Oc3ccc(NC(=O)Nc4cc(C)on4)c(Cl)c3)c2cc1OC [AV-951]; conditions: top dose 0.128 µM; top dose inferred
Method: as §1

MS-275 = compound: Nc1ccccc1NC(=O)c1ccc(CNC(=O)OCc2cccnc2)cc1 [MS-275]; conditions: top dose 5 µM; top dose inferred
Method: as §1

KIN001-244 = compound: O=C(NC(COc1ccc2[nH]c(=O)[nH]c2c1)c1ccccc1)c1cccn(Cc2ccc(F)c(F)c2)c1=O [KIN001-244]; conditions: top dose 20 µM; top dose inferred
Method: as §1

Cell Line	AUC (Trametinib)	IC50 (Trametinib)	AUC (HG-6-64-1)	IC50 (HG-6-64-1)	AUC (I-BET-762)	IC50 (I-BET-762)	AUC (PF-4708671)	IC50 (PF-4708671)	AUC (AV-951)	IC50 (AV-951)	AUC (MS-275)	IC50 (MS-275)	AUC (KIN001-244)	IC50 (KIN001-244)
NB7 (neuroblastoma, adherent)	0.964	> 1000 nM	0.734	1.54 µM	0.922	> 20 µM	0.921	> 10 µM	0.98	> 128 nM	0.842	3750 nM	0.902	> 20 µM
NB10 (neuroblastoma, adherent)	0.533	76.9 nM	0.954	> 5.12 µM	0.81	10.2 µM	0.958	> 10 µM	0.988	> 128 nM	0.732	1400 nM	0.876	19.1 µM
NB12 (neuroblastoma, adherent)	0.529	77.2 nM	0.61	0.711 µM	0.683	4.88 µM	0.98	> 10 µM	0.965	> 128 nM	0.514	345 nM	0.938	> 20 µM
NB13 (neuroblastoma, adherent)	0.984	> 1000 nM	0.905	> 5.12 µM	0.807	8.89 µM	0.969	> 10 µM	0.99	> 128 nM	0.622	650 nM	0.726	5.01 µM
NB14 (neuroblastoma, adherent)	0.815	509 nM	0.914	> 5.12 µM	0.929	> 20 µM	0.947	> 10 µM	0.986	> 128 nM	0.641	749 nM	0.747	6.09 µM
NB(TU)1-10 (neuroblastoma, adherent)	0.991	> 1000 nM	0.663	0.848 µM	0.638	2.84 µM	0.956	> 10 µM	0.993	> 128 nM	0.696	1020 nM	0.85	12.1 µM
NB-4 (acute myeloid leukaemia, suspension)	0.079	< 3.91 nM	0.766	1.57 µM	0.23	0.249 µM	0.991	> 10 µM	0.987	> 128 nM	0.437	217 nM	0.692	3.83 µM
NCI-H23 (lung adenocarcinoma, adherent)	0.587	108 nM	0.987	> 5.12 µM	0.903	> 20 µM	0.98	> 10 µM	0.981	> 128 nM	0.88	> 5000 nM	0.942	> 20 µM
NCI-H69 (small cell lung carcinoma, suspension)	0.977	> 1000 nM	0.939	> 5.12 µM	0.985	> 20 µM	0.973	> 10 µM	0.966	> 128 nM	0.558	460 nM	0.944	> 20 µM
NCI-H82 (small cell lung carcinoma, suspension)	0.981	> 1000 nM	0.99	> 5.12 µM	0.968	> 20 µM	0.983	> 10 µM	0.986	> 128 nM	0.76	1670 nM	0.958	> 20 µM
NCI-H187 (small cell lung carcinoma, suspension)	0.987	> 1000 nM	0.988	> 5.12 µM	0.944	> 20 µM	0.95	> 10 µM	0.969	> 128 nM	0.574	507 nM	0.859	19 µM
NCI-H209 (small cell lung carcinoma, suspension)	0.91	> 1000 nM	0.875	> 5.12 µM	0.947	> 20 µM	0.959	> 10 µM	0.944	> 128 nM	0.548	426 nM	0.85	16.9 µM
NCI-H211 (small cell lung carcinoma, adherent)	0.932	> 1000 nM	0.845	3.56 µM	0.691	4.2 µM	0.933	> 10 µM	0.979	> 128 nM	0.573	491 nM	0.797	9.14 µM
NCI-H226 (lung squamous cell carcinoma, adherent)	0.877	> 1000 nM	0.873	> 5.12 µM	0.911	> 20 µM	0.956	> 10 µM	0.984	> 128 nM	0.979	> 5000 nM	0.885	> 20 µM
NCI-H322M (lung adenocarcinoma, suspension)	0.948	> 1000 nM	0.918	> 5.12 µM	0.976	> 20 µM	0.986	> 10 µM	0.987	> 128 nM	0.965	> 5000 nM	0.96	> 20 µM
NCI-H345 (small cell lung carcinoma, suspension)	0.985	> 1000 nM	0.92	> 5.12 µM	0.974	> 20 µM	0.982	> 10 µM	0.99	> 128 nM	0.772	2040 nM	0.965	> 20 µM
NCI-H446 (small cell lung carcinoma, semi-adherent)	0.984	> 1000 nM	0.931	> 5.12 µM	0.707	5.02 µM	0.985	> 10 µM	0.984	> 128 nM	0.717	1350 nM	0.799	10.4 µM
NCI-H524 (small cell lung carcinoma, suspension)	0.99	> 1000 nM	0.978	> 5.12 µM	0.989	> 20 µM	0.985	> 10 µM	0.99	> 128 nM	0.582	509 nM	0.991	> 20 µM

Cell Line	AUC (Trametinib)	IC50 (Trametinib)	AUC (HG-6-64-1)	IC50 (HG-6-64-1)	AUC (I-BET-762)	IC50 (I-BET-762)	AUC (PF-4708671)	IC50 (PF-4708671)	AUC (AV-951)	IC50 (AV-951)	AUC (MS-275)	IC50 (MS-275)	AUC (KIN001-244)	IC50 (KIN001-244)
NCI-H716 (large intestine, suspension)	0.373	25.5 nM	0.774	2.56 µM	0.884	> 20 µM	0.954	> 10 µM	0.904	> 128 nM	0.92	> 5000 nM	0.865	> 20 µM
NCI-H720 (lung carcinoid, suspension)	0.985	> 1000 nM	0.992	> 5.12 µM	0.98	> 20 µM	0.992	> 10 µM	0.99	> 128 nM	0.792	2050 nM	0.985	> 20 µM
NCI-H747 (large intestine, adherent)	0.158	4.17 nM	0.713	1.49 µM	0.864	> 20 µM	0.97	> 10 µM	0.981	> 128 nM	0.785	2670 nM	0.873	> 20 µM
NCI-H847 (small cell lung carcinoma, adherent)	0.992	> 1000 nM	0.919	> 5.12 µM	0.685	3.66 µM	0.988	> 10 µM	0.976	> 128 nM	0.688	932 nM	0.794	7.33 µM
NCI-H1092 (small cell lung carcinoma, suspension)	0.982	> 1000 nM	0.99	> 5.12 µM	0.927	> 20 µM	0.972	> 10 µM	0.972	> 128 nM	0.789	2230 nM	0.864	17.7 µM
NCI-H1155 (large cell lung carcinoma, suspension)	0.983	> 1000 nM	0.993	> 5.12 µM	0.867	12.9 µM	0.952	> 10 µM	0.987	> 128 nM	0.886	3820 nM	0.946	> 20 µM
NCI-H1304 (small cell lung carcinoma, suspension)	0.986	> 1000 nM	0.978	> 5.12 µM	0.985	> 20 µM	0.947	> 10 µM	0.988	> 128 nM	0.831	3520 nM	0.987	> 20 µM
NCI-H1355 (lung adenocarcinoma, adherent)	0.513	68.7 nM	0.745	2.26 µM	0.978	> 20 µM	0.918	> 10 µM	0.977	> 128 nM	0.749	2290 nM	0.971	> 20 µM
NCI-H1395 (lung adenocarcinoma, adherent)	0.837	> 1000 nM	0.973	> 5.12 µM	0.978	> 20 µM	0.946	> 10 µM	0.982	> 128 nM	0.777	2720 nM	0.903	> 20 µM
NCI-H1417 (small cell lung carcinoma, suspension)	0.308	16.2 nM	0.982	> 5.12 µM	0.906	> 20 µM	0.847	9.62 µM	0.974	> 128 nM	0.365	123 nM	0.881	> 20 µM
NCI-H1436 (small cell lung carcinoma, suspension)	0.968	> 1000 nM	0.849	4.68 µM	0.983	> 20 µM	0.966	> 10 µM	0.983	> 128 nM	0.861	> 5000 nM	0.91	> 20 µM
NCI-H1581 (large cell lung carcinoma, semi-adherent)	0.9	> 1000 nM	0.896	> 5.12 µM	0.989	> 20 µM	0.98	> 10 µM	0.98	> 128 nM	0.915	> 5000 nM	0.913	> 20 µM
NCI-H1648 (lung adenocarcinoma, adherent)	0.891	> 1000 nM	0.893	> 5.12 µM	0.949	> 20 µM	0.919	> 10 µM	0.983	> 128 nM	0.84	3740 nM	0.9	> 20 µM
NCI-H1666 (lung adenocarcinoma, semi-adherent)	0.166	5.29 nM	0.976	> 5.12 µM	0.93	> 20 µM	0.974	> 10 µM	0.987	> 128 nM	0.932	> 5000 nM	0.973	> 20 µM
NCI-H1694 (small cell lung carcinoma, suspension)	0.986	> 1000 nM	0.977	> 5.12 µM	0.908	> 20 µM	0.983	> 10 µM	0.983	> 128 nM	0.889	> 5000 nM	0.883	> 20 µM
NCI-H1770 (non-small cell lung carcinoma, suspension)	0.981	> 1000 nM	0.776	1.79 µM	0.933	> 20 µM	0.977	> 10 µM	0.992	> 128 nM	0.947	> 5000 nM	0.937	> 20 µM
NCI-H1836 (small cell lung carcinoma, suspension)	0.968	> 1000 nM	0.893	> 5.12 µM	0.904	> 20 µM	0.988	> 10 µM	0.988	> 128 nM	0.889	> 5000 nM	0.985	> 20 µM

IC50 is the fitted dose that halves viability relative to control wells, and lower means more sensitive; a limit (>, <) means that the fit lies beyond the doses tested. AUC is the area under the same curve over the 256-fold range up to the top dose, as a fraction; it is 1 without any effect and falls as sensitivity rises. For some of these results: The top dose, if marked as inferred, was calculated from the reported fits.
